Measured values reported in article PMC12668182.
Residue numbers refer to the chain shown, from its start. Results are given in words; binding and its absence hold for the method and conditions named. For part of these data: In cells and extracts the contact can be indirect. Some binding calls cover weakened binding; strength is not graded here. For part of these data: Sequences can lack the tags named with a protein.

Chains of the proteins cited; added tags and fusions are not shown. Lines headed by an entry give the natural chain unless they say otherwise; changes in a name come on top. A line that says so, or that is headed by a name, gives the form on record, which may keep a tag or linker.
UniProt Q03468: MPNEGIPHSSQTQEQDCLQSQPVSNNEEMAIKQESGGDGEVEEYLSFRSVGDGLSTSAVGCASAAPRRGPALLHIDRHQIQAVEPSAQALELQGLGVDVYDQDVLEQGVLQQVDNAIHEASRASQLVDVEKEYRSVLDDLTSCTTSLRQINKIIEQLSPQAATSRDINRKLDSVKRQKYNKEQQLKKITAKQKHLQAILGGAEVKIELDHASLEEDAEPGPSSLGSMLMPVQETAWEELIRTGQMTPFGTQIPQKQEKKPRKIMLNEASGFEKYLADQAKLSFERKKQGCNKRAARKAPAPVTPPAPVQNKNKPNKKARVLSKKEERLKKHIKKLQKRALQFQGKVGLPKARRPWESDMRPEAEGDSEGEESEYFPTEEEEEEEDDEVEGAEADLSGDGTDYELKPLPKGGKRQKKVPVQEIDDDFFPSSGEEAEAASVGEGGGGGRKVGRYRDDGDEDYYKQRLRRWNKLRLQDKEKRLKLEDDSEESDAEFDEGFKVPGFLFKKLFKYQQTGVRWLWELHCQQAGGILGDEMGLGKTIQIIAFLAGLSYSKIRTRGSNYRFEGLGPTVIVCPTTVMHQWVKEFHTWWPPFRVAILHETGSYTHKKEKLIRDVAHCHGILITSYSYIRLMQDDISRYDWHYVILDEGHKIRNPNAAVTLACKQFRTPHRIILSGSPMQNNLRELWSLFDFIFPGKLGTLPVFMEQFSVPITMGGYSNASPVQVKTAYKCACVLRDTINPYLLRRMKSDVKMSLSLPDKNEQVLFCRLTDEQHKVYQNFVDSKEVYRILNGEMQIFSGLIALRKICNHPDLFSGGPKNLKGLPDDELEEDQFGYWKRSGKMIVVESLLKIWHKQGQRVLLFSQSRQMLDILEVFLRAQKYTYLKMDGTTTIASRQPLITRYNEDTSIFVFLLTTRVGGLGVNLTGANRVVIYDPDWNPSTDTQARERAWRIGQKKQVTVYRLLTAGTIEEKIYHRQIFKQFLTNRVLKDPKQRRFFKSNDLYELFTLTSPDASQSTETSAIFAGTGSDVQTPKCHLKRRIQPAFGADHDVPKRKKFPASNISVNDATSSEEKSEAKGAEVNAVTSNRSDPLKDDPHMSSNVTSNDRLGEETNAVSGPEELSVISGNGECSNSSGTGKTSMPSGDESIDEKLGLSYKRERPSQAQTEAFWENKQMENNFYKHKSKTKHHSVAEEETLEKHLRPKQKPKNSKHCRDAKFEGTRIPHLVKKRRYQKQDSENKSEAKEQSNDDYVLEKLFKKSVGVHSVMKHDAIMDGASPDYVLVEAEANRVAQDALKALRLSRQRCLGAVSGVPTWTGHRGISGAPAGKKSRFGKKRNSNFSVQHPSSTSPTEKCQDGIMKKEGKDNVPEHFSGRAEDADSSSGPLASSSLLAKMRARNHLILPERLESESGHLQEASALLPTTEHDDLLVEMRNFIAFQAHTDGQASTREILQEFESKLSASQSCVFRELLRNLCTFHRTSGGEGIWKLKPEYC
CSB-WHD (a.a. 1424-1493) with T1447A substitution (Q03468, form named): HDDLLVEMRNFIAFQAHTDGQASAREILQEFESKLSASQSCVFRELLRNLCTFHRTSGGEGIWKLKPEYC

How the values were obtained:
[1] = target: CSB lacking the C-terminal domain (DC-CSB, a.a. 1-1014) (human) (UniProt Q03468); test: mass photometry; CSB variants alone; 50 mM HEPES pH 7.5, 300 mM NaCl, 0.5 mM TCEP; results say 200 nM, methods say 2 uM diluted to 20 nM in the gasket; monomer to dimer; both purified
[2] = target: T1, N-Avi-Biotin-SNM1A (a.a. 698-1040), wild type (human) (UniProt Q6PJP8); test: SPR; single-cycle; SNM1A immobilised via biotinylated N-terminal Avi tag on a Series S SA surface (~4000 RU); CSB constructs as analytes, 5 or 6 two-fold dilutions from 500 nM or 1 uM; 20 mM HEPES pH 7.5, 150 mM NaCl, 0.5 mM TCEP; 1:1 Langmuir fit; apparent KD; both purified
T1 sequence (chain, biotin on the N-terminal Avi tag): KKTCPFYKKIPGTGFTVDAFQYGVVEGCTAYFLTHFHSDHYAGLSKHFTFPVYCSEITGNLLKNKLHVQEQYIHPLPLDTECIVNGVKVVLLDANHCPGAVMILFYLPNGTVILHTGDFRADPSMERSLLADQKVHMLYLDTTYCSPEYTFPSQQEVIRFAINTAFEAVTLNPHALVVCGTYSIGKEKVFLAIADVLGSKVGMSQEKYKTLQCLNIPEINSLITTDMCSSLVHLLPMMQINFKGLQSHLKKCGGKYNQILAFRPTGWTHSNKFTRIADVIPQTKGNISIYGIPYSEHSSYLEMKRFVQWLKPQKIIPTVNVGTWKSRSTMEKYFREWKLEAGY

[3] = target: T1, N-Avi-Biotin-SNM1A (a.a. 698-1040), wild type (human); test: condition: dilutions starting from 500 nM or 1 uM (methods); SPR; single-cycle; SNM1A immobilised via biotinylated N-terminal Avi tag on a Series S SA surface (~4000 RU); CSB constructs as analytes, 5 or 6 two-fold dilutions from 500 nM or 1 uM; 20 mM HEPES pH 7.5, 150 mM NaCl, 0.5 mM TCEP; 1:1 Langmuir fit; apparent KD; both purified
[4] = target: T2, GFP-tagged SNM1A, full-length construct, E864A (human) (UniProt Q6PJP8); test: co-IP; GFP-Trap magnetic agarose on RIPA lysates (with Benzonase) of HEK293 FT cells transfected with GFP-tagged SNM1A or CSB; washes with 150, 250 and 500 mM NaCl; Western blot
T2 sequence: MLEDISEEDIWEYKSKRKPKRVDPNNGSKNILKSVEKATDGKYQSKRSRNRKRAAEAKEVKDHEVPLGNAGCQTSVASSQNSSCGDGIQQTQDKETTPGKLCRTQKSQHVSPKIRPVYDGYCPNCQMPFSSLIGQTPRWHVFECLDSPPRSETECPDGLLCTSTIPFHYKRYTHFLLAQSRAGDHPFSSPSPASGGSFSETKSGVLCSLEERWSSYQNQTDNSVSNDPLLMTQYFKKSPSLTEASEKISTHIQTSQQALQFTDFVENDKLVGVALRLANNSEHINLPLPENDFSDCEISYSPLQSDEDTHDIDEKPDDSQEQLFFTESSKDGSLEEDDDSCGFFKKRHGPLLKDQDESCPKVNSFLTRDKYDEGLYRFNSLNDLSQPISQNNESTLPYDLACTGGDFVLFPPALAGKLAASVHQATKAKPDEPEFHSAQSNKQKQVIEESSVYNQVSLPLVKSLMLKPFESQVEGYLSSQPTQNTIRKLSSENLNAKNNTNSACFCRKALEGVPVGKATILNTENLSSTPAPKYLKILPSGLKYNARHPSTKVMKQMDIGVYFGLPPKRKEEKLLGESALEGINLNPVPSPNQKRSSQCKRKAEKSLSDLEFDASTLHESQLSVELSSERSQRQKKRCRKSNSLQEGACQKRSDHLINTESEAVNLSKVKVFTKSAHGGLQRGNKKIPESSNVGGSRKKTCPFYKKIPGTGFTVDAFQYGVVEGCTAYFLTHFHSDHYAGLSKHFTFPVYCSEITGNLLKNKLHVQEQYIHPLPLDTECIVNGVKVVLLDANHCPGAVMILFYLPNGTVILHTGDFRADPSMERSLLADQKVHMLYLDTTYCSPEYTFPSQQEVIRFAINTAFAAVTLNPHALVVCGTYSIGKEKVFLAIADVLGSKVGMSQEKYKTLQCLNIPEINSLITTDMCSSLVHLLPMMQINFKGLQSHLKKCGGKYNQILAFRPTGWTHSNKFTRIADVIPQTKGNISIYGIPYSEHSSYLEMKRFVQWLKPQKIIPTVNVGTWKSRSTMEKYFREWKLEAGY

[5] = target: T3, GFP-tagged SNM1A, full-length construct, WT (human) (UniProt Q6PJP8); test: as above
T3 sequence: T2 sequence with A864E

[6] = target: T4, GFP-tagged SNM1A, full-length construct, nuclease-dead variant D736A (human) (UniProt Q6PJP8); test: as above
T4 sequence: T2 sequence with D736A, A864E

For “CSB lacking the C-terminal domain (DC-CSB, a.a. 1-1014) (from UniProt Q03468 1-1014) (domain or fragment)”, the binding [1] was “no binding (tested: 200 nM)”.

For “CSB-WHD (a.a. 1424-1493) with T1447A substitution (from UniProt Q03468 1424-1493) (domain or fragment)”, the binding [2] was “no binding”.

With “CSB C-terminal region lacking the WHD (a.a. 1187-1401) (from UniProt Q03468 1187-1401) (domain or fragment)” the binding [3] was “no binding”.

With “CSB found in the co-immunoprecipitates of GFP-SNM1A (from UniProt Q03468 1-1493)” the binding [4] was “binds”, the binding [5] was “binds” and the binding [6] was “binds”.
